{"source": "the supplement of paper PMC11417369", "note": "± gives the standard deviation of the averaged measurements. The list shows a part of the results."}
{"tested_on": "PfAP2-EXP AP2 domain (GST-tagged)", "test": "gcPBM binding intensity (ln(normalized median fluorescence intensity)); higher = stronger DNA binding", "method_in_brief": "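In this array assay, P. falciparum DNA-binding domains with a GST tag, expressed in E. coli, were applied for 1 h to primer-extended double-stranded 36-bp intergenic genomic probes and negative controls on an Agilent 4 × 180k array. Bound protein was visualised with Alexa488 anti-GST antibody at 488 nm. Binding intensity is the highest Masliner-normalised natural-log median intensity across replicate spots of either probe orientation.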"}
{"sequence": "CATATATACATATATACACACATATATATATATATA [CACACA_site645]", "gcPBM binding intensity (ln)": "10.1 ± 0.27"}
{"sequence": "TATATATATTATATAGTGCATTGAAGAAGGGGATTT", "gcPBM binding intensity (ln)": "8.635 ± 0.064"}
{"sequence": "GTGTGGTTACAGACACGAACACATTTTTTAAATATT [CACACA_negctrl_site83]", "gcPBM binding intensity (ln)": "8.65 ± 0.47"}
{"sequence": "GTAAGAAAGAAAGGAAGTACGTAAGAAAGTAAGAAC [XGTACX_site1239]", "gcPBM binding intensity (ln)": "9.37 ± 0.45"}
{"sequence": "TTTTTTTTTCTGTGAGTGCATGTAATAAAATAAATT [GTGCAC_site9740]", "gcPBM binding intensity (ln)": "8.8 ± 0.057"}
{"sequence": "CATATTTGTTGACACACACACATATTTATATAAATA [CACACA_site7648]", "gcPBM binding intensity (ln)": "8.74 ± 0.4"}
{"sequence": "GGGAGGATATTACACAGTACCCAGAAAATCTACGGA [XGTACX_site2551]", "gcPBM binding intensity (ln)": "8.8 ± 0.43"}
{"sequence": "TTTATATGTTTAAAATGTACATGTGGTAAAAATTTT [XGTACX_site5907]", "gcPBM binding intensity (ln)": "8.8 ± 0.42"}
{"sequence": "TATTCCTTATTATAATTCTTAAATAAAAAAAAAAAA [TGCATGCA_negctrl_site45]", "gcPBM binding intensity (ln)": "8.01 ± 0.33"}
{"sequence": "CCCATTATTGTTGGGGGTACAATTTTGAATATATAT [XGTACX_site2227]", "gcPBM binding intensity (ln)": "9.7 ± 0.49"}
{"sequence": "ATATATAAACTGAAGGGTACAATGAAAAAAGAACTT [XGTACX_site7219]", "gcPBM binding intensity (ln)": "9.08 ± 0.59"}
{"sequence": "TAGGATTTTTAGTTTATTGTAACTATTATTTTATTT [CACACA_negctrl_site829]", "gcPBM binding intensity (ln)": "8.25 ± 0.4"}
{"sequence": "ATTCATATATATTATACACACACATATATAAATATA [CACACA_site8228]", "gcPBM binding intensity (ln)": "8.56 ± 0.38"}
{"sequence": "AAAAATACCTGAATATGTACATATGATCAATGGGCC [XGTACX_site887]", "gcPBM binding intensity (ln)": "9.08 ± 0.67"}
{"sequence": "AAAATCGTGTTCTGAATACACACTAATACAAAGTTG [CACACA_site3985]", "gcPBM binding intensity (ln)": "8.35 ± 0.4"}
{"sequence": "AGAAGTTTAAAAAGCACACAAAAAAAAAAAAAAAGA [CACACA_site3309]", "gcPBM binding intensity (ln)": "8.46 ± 0.47"}
{"sequence": "AAATAAAATAAAAACATGCACACTTTATTTTTTTTA [CACACA_site2800]", "gcPBM binding intensity (ln)": "8.49 ± 0.26"}
{"sequence": "TAAAAATATAAATTTTGTACGTAAAAAATGGTTCTT [XGTACX_site1506]", "gcPBM binding intensity (ln)": "8.57 ± 0.39"}
{"sequence": "TATTCTATATAATAATGTACGTGATTTAAATTTTCA [XGTACX_site6650]", "gcPBM binding intensity (ln)": "8.41 ± 0.28"}
{"sequence": "TGACCGTTTTAAGAGTGTACAAAAAAAAAAAAAAAA [XGTACX_site4141]", "gcPBM binding intensity (ln)": "8.21 ± 0.43"}
{"sequence": "TAAAAAATAAGATATACACACATATATATATATATA [CACACA_site2324]", "gcPBM binding intensity (ln)": "10.2 ± 0.42"}
{"sequence": "ATTCACATACATTACTTACACACCATATTAATATAT [CACACA_site459]", "gcPBM binding intensity (ln)": "8.85 ± 0.23"}
{"sequence": "TAACATATTAATAACATATTTATAATATATTAATAA [TGCATGCA_negctrl_site243]", "gcPBM binding intensity (ln)": "7.83 ± 0.4"}
{"sequence": "AAAAAAAAAAAAAAGGAACACACAAGTAACAATAAA [CACACA_site8792]", "gcPBM binding intensity (ln)": "8.74 ± 0.64"}
{"sequence": "AATTATACTTCCTTCACACAGTTACATCATATATTA [CACACA_site5942]", "gcPBM binding intensity (ln)": "8.92 ± 0.41"}
{"sequence": "ATTAAAAAAAAAAAAAGTACTTATAATTATACTCGT [XGTACX_site4852]", "gcPBM binding intensity (ln)": "8.37 ± 0.38"}
{"sequence": "AGACCTTTAATTTGTGTGCACATAATTAGTGTACAT [GTGCAC_site9434]", "gcPBM binding intensity (ln)": "9.22 ± 0.42"}
{"sequence": "TTCAAATTGTTTATATGTACTTATAAAAATTGTCTG [XGTACX_site977]", "gcPBM binding intensity (ln)": "8.35 ± 0.42"}
{"sequence": "ACAAATAAAAATATTACACACACTATTATATTGATA [CACACA_site1494]", "gcPBM binding intensity (ln)": "8.38 ± 0.43"}
{"sequence": "TTATATTATATATATGTGCACATTTTTAAACTTGGA", "gcPBM binding intensity (ln)": "8.71 ± 0.27"}
{"sequence": "AAATATTTATATGTTACACACTGTTGATAATTTTCT [CACACA_site1347]", "gcPBM binding intensity (ln)": "8.34 ± 0.54"}
{"sequence": "GGAAGATGAAAAATAAAGCATGTGCTGTACAAACGA [CACACA_negctrl_site1625]", "gcPBM binding intensity (ln)": "8.96 ± 0.49"}
{"sequence": "ACTTATTTCGATATGTGTACTTAATATATATATTTA [XGTACX_site6616]", "gcPBM binding intensity (ln)": "8.68 ± 0.32"}
{"sequence": "AAAAATATTTTGGTTTGTACATATATTTTTACAATA [XGTACX_site8691]", "gcPBM binding intensity (ln)": "8.51 ± 0.45"}
{"sequence": "ATTTTTGTAATTATTTGTACACATTTATTTATGTGT [XGTACX_site1864]", "gcPBM binding intensity (ln)": "8.68 ± 0.33"}
{"sequence": "TTTTTTTTTTTTTCAAGTACATAACTTACCCCTTTT [XGTACX_site6207]", "gcPBM binding intensity (ln)": "8.53 ± 0.42"}
{"sequence": "TTATATGCATAAAAACGTACAAAAATGTATTCATGT [XGTACX_site2215]", "gcPBM binding intensity (ln)": "8.71 ± 0.38"}
{"sequence": "GTTATAGAAGCATTCACACACACACCCACATACACA [CACACA_site1465]", "gcPBM binding intensity (ln)": "8.94 ± 0.68"}
{"sequence": "TTACATAATATATGTACACACGCAAATACTTAGAAT [CACACA_site320]", "gcPBM binding intensity (ln)": "8.72 ± 0.38"}
{"sequence": "GAATGTTAACGTTGCACACAAAAAAAAAGTATACAT [CACACA_site2415]", "gcPBM binding intensity (ln)": "8.81 ± 0.58"}
{"sequence": "AAACGATTACTGTGTACACACATAGTTATAAACATA [CACACA_site5195]", "gcPBM binding intensity (ln)": "8.62 ± 0.33"}
{"sequence": "AGGATATGCAGACACACACACATATATATATATATA [CACACA_site2201]", "gcPBM binding intensity (ln)": "10.3 ± 0.41"}
{"sequence": "TTTTTTAATAATAGGAAAATGAATATTATATCGAAT [TGCATGCA_negctrl_site543]", "gcPBM binding intensity (ln)": "8.42 ± 0.34"}
{"sequence": "TTATATATTTATATTTGTACGTATAAATTTTTTTTT [XGTACX_site2833]", "gcPBM binding intensity (ln)": "8.45 ± 0.32"}
